Measured values: article doi:10.1101/2024.06.30.601371 (bioRxiv, 2024)

Molecular target: the molecule itself
Test: SEC

B1: Wild-type PKA RIβ Dimerization/Docking (D/D) domain (domain or fragment)
chain: not shown
stoichiometry N: 2
